The text below walks through data of patent publication US20240067729A1 (PALLEON PHARMACEUTICALS, published 2024).

Test [1] deals with T1, cynomolgus PD-L1, his tagged (cPD-L1-his) (cynomolgus (Macaca fascicularis), UniProt G7PSE7 19-238).
T1 construct: also called cyPD-L1-His; Cyno PD-L1
The test can be described thus: BLI (ForteBio Octet), cynomolgus PD-L1.

For test [2], the target named is T2, human PD-L1 expressed on cells (HCC827, NCI-H292, CHO-PD-L1, engineered CHO-K1) (human, UniProt Q9NZQ7).
T2 construct: whole, on cells; Endogenous on the human lung lines HCC827 and NCI-H292; transfected on CHO cells; also called PD-L1 on HCC827; PD-L1 on NCI-H292
The test can be described thus: flow cytometry on NCI-H292 cells, apparent Kd. As to the method: (§1) The ability of PD-L1 antibody sialidase conjugates to bind PD-L1 on HCC827 and NCI-H292 cells was examined next. […] After washing with staining buffer, cells were incubated with AF647 Goat anti-human IgG(H+L) in staining buffer at 4° C. for 30 min. After 2× wash with staining buffer, cells were fixed and run on FACSCelesta.

Test [3] deals with T2, human PD-L1 expressed on cells (HCC827, …). The test can be described thus: flow cytometry on HCC827 cells, apparent Kd; calculated using data points up to 11 nM. The protocol:
as §1

Test [4] addresses T3, human PD-L1, his tagged (hPD-L1-his) (human, UniProt Q9NZQ7 partial chain, limits assumed).
T3 construct: also called huPD-L1-His; recombinant human PD-L1; not shown: his tag
The test can be described thus: BLI (ForteBio Octet), human PD-L1.

The target of test [5] is T2, human PD-L1 expressed on cells (HCC827, …). The test can be described thus: cell-based or functional assay.
Test [6] deals with T3, human PD-L1, his tagged (hPD-L1-his). The test can be described thus: BLI (ForteBio Octet), recombinant human PD-L1.
T3 sequence (Q9NZQ7 19-238 limits assumed): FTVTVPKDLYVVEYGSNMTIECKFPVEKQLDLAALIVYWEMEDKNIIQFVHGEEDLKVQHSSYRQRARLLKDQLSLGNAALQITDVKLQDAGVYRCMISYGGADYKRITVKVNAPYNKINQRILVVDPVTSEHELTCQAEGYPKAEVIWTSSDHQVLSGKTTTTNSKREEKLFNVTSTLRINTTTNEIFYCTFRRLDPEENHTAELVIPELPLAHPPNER

T1 sequence (G7PSE7 entry or part of it limits assumed, form in doubt): as the sequence (Q9NZQ7 19-238 limits assumed) above, with A33T, A34S, S62N, R68Q, Q82R, F173L, T185A, T192I, H215L counted along it

B1: ASC3 (Janus PD-L1 antibody sialidase conjugate) (other)
light: EIVMTQSPPTLSLSPGERVTLSCRASQSVSNDLSWYQQKPGQAPRLLIYYASIRFTGIPARFSGSGSGTDFTLTISSLQPEDFAVYYCQQDYTSPWTFGQGTKVEIKRTVAAPSVFIFPPSDEQLKSGTASVVCLLNNFYPREAKVQWKVDNALQSGNSQESVTEQDSKDSTYSLSSTLTLSKADYEKHKVYACEVTHQGLSSPVTKSFNRGEC
heavy: EVQLVQSGAEVKKPGATVKISCKVSGFNIKDTYMHWVQQAPGKGLEWMGLIDPANDNTIYAEKFQGRVTITADTSTDTAYMELSSLRSEDTAVYYCAREGYGGSYGEGYWGQGTLVTVSSASTKGPSVFPLAPSSKSTSGGTAALGCLVKDYFPEPVTVSWNSGALTSGVHTFPAVLQSSGLYSLSSVVTVPSSSLGTQTYICNVNHKPSNTKVDKKV[omitted - human IgG1 Fc with N297A Y407T (EU numbers)]
chain: DASLPYLQKESVFQSGAHAYRIPALLYLPGQQSLLAFAEQRASKKDEHAELIVLRRGDYDAGTHQVQWQAQEVVAQARLDGHRSMNPCPLYDEQTGTLFLFFIAIPGQVTEQQQLQTRANVTRLCYVTSTDHGRTWSSPRDLTDAAIGPAYREWSTFAVGPGHCLQLHDRARSLVVPAYAYRKLHPKQRPIPSAFCFLSHDHGRTWARGHFVAQDTLECQVAEVETGEQRVVTLNARSHLRFRVQAQSTNDGLDFQESQLVKKLVEPPPTGCQGSVISFPSPRSGPGSPAQWLLYTHPTHSWQRADLGAYLNPRPPAPEAWSEPVLLAKGSAAYSDLQSMGTGPDGSPLFGCLYEANDYEEIVFLMFTLKQAFPAEYLPQ[omitted - human IgG1 Fc with C220S N297A T366Y (EU numbers)]
notes: One h769.T antibody arm plus one mutant Neu2-Fc chain; human IgG1 Fc with N297A
Take B1: the Kd in test [1] was 2.26 nM; in test [2], 0.193 nM; in test [3], 0.233 nM; in test [4] it was 1.73 nM. The koff was 0.000821 s⁻¹ in test [1] and 0.000751 s⁻¹ in test [4]. Moreover, the kon turned out to be 367000 M⁻¹ s⁻¹ in test [1] and 436000 M⁻¹ s⁻¹ in test [4].

B2: ASC4 loss of function (ASC4 LOF), Janus PD-L1 antibody sialidase conjugate with inactive sialidase (other)
light: EIVMTQSPPTLSLSPGERVTLSCRASQSVSNDLSWYQQKPGQAPRLLIYYASIRFTGIPARFSGSGSGTDFTLTISSLQPEDFAVYYCQQDYTSPWTFGQGTKVEIKRTVAAPSVFIFPPSDEQLKSGTASVVCLLNNFYPREAKVQWKVDNALQSGNSQESVTEQDSKDSTYSLSSTLTLSKADYEKHKVYACEVTHQGLSSPVTKSFNRGEC
heavy: EVQLVQSGAEVKKPGATVKISCKVSGFNIKDTYMHWVQQAPGKGLEWMGLIDPANDNTIYAEKFQGRVTITADTSTDTAYMELSSLRSEDTAVYYCAREGYGGSYGEGYWGQGTLVTVSSASTKGPSVFPLAPSSKSTSGGTAALGCLVKDYFPEPVTVSWNSGALTSGVHTFPAVLQSSGLYSLSSVVTVPSSSLGTQTYICNVNHKPSNTKVDKKV[omitted - human IgG1 Fc with N297A Y407T (EU numbers)]
chain: DASLPYLQDESVFQSGAHAYRIPALLYLPGQQSLLAFAEQRASKKDEHAELIVLRRGDYDAPTHQVQWQAQEVVAQARLDGHRSMNPCPLYDEQTGTLFLFFIAIPGQVTEQQQLQTRANVTRLCQVTSTDHGRTWSSPRDLTDAAIGPAYREWSTFAVGPGHCLQLHDRARSLVVPAYAYRKLHPKQRPIPSAFCFLSHDHGRTWARGHFVAQDTLANQVAEVETGEQRVVTLNARSHLRARVQAQSTNDGLDFQESQLVKKLVEPPPQGCQGSVISFPSPRSGPGSPAQWLLYTHPTHSWQRADLGAYLNPRPPAPEAWSEPVLLAKGSAAYSDLQSMGTGPDGSPLFGCLYEANDYEEIRFRMFTLKQAFPAEYLPQ[omitted - human IgG1 Fc with C220S N297A T366Y (EU numbers)]
notes: human IgG1 Fc with N297A
Turning to B2, the Kd was 1.04 nM in test [1], 0.445 nM in test [2], 0.56 nM in test [3] and 1.79 nM in test [4]. The results for the off-rate constant (koff) in test [1] and in test [4] were 0.00039 s⁻¹ and 0.000755 s⁻¹, respectively. Further, the kon in test [1] stood at 423000 M⁻¹ s⁻¹; in test [4], 449000 M⁻¹ s⁻¹.

B3: ASC5 (Janus PD-L1 antibody sialidase conjugate) (other)
light: EIVMTQSPPTLSLSPGERVTLSCRASQSVSNDLSWYQQKPGQAPRLLIYYASIRFTGIPARFSGSGSGTDFTLTISSLQPEDFAVYYCQQDYTSPWTFGQGTKVEIKRTVAAPSVFIFPPSDEQLKSGTASVVCLLNNFYPREAKVQWKVDNALQSGNSQESVTEQDSKDSTYSLSSTLTLSKADYEKHKVYACEVTHQGLSSPVTKSFNRGEC
heavy: EVQLVQSGAEVKKPGATVKISCKVSGFNIKDTYMHWVQQAPGKGLEWMGLIDPANDNTIYAEKFQGRVTITADTSTDTAYMELSSLRSEDTAVYYCAREGYGGSYGEGYWGQGTLVTVSSASTKGPSVFPLAPSSKSTSGGTAALGCLVKDYFPEPVTVSWNSGALTSGVHTFPAVLQSSGLYSLSSVVTVPSSSLGTQTYICNVNHKPSNTKVDKKV[omitted - human IgG1 Fc with N297A Y407T (EU numbers)]
chain: DASLPYLQKESVFQSGAHAYRIPALLYLPGQQSLLAFAEQRRSKKDEHAELIVLRRGDYDAGTHQVQWQAQEVVAQARLDGHRSMNPCPLYDEQTGTLFLFFIAIPGQVTEQQQLQTRANVTRLCYVTSTDHGRTWSSPRDLTDAAIGPAYREWSTFAVGPGHCLQLHDRARSLVVPAYAYRKLHPKQRPIPSAFCFLSHDHGRTWARGHFVAQDTLECQVAEVETGEQRVVTLNARSHLRFRVQAQSTNDGLDFQESQLVKKLVEPPPTGCQGSVISFPSPRSGPGSPAQWLLYTHPTHSWQRADLGAYLNPRPPAPEAWSEPVLLAKGSAAYSDLQSMGTGPDGSPLFGCLYEANDYEEIVFLMFTLKQAFPAEYLPQ[omitted - human IgG1 Fc with C220S N297A T366Y (EU numbers)]
notes: as for B1
With B3, in test [1], the Kd turned out to be 1.23 nM, the koff is 0.000438 s⁻¹ and the kon was 369000 M⁻¹ s⁻¹. Besides, in test [5], the “EC50 (NFAT-luciferase fold induction), first of three lots” value worked out at 11.5 nM; the “EC50 (NFAT-luciferase fold induction), second of three lots” value worked out at 11.6 nM; the “EC50 (NFAT-luciferase fold induction), third of three lots” value came out at 12.7 nM. Further, in test [2], the Kd worked out at 0.363 nM. For the same molecule, the Kd in test [3] was 0.455 nM. In addition, in test [4], the Kd is 1.66 nM, the koff came to 0.000721 s⁻¹ and the kon stood at 433000 M⁻¹ s⁻¹.

B4: ASC1 (Janus PD-L1 antibody sialidase conjugate) (other)
light: EIVMTQSPPTLSLSPGERVTLSCRASQSVSNDLSWYQQKPGQAPRLLIYYASIRFTGIPARFSGSGSGTDFTLTISSLQPEDFAVYYCQQDYTSPWTFGQGTKVEIKRTVAAPSVFIFPPSDEQLKSGTASVVCLLNNFYPREAKVQWKVDNALQSGNSQESVTEQDSKDSTYSLSSTLTLSKADYEKHKVYACEVTHQGLSSPVTKSFNRGEC
heavy: EVQLVQSGAEVKKPGATVKISCKVSGFNIKDTYMHWVQQAPGKGLEWMGLIDPANDNTIYAEKFQGRVTITADTSTDTAYMELSSLRSEDTAVYYCAREGYGGSYGEGYWGQGTLVTVSSASTKGPSVFPLAPSSKSTSGGTAALGCLVKDYFPEPVTVSWNSGALTSGVHTFPAVLQSSGLYSLSSVVTVPSSSLGTQTYICNVNHKPSNTKVDKKV[omitted - human IgG1 Fc with N297A T366Y (EU numbers)]
chain: DASLPYLQKESVFQSGAHAYRIPALLYLPGQQSLLAFAEQRASKKDEHAELIVLRRGDYDAGTHQVQWQAQEVVAQARLDGHRSMNPCPLYDEQTGTLFLFFIAIPGQVTEQQQLQTRANVTRLCQVTSTDHGRTWSSPRDLTDAAIGPAYREWSTFAVGPGHCLQLHDRARSLVVPAYAYRKLHPKQRPIPSAFCFLSHDHGRTWARGHFVAQDTLECQVAEVETGEQRVVTLNARSHLRARVQAQSTNDGLDFQESQLVKKLVEPPPQGCQGSVISFPSPRSGPGSPAQWLLYTHPTHSWQRADLGAYLNPRPPAPEAWSEPVLLAKGSAAYSDLQSMGTGPDGSPLFGCLYEANDYEEIVFLMFTLKQAFPAEYLPQ[omitted - human IgG1 Fc with C220S N297A Y407T (EU numbers)]
notes: One h769.T antibody arm plus one Neu2 (M1D, V6Y, P62G, A93E, I187K, C332A)-Fc chain; human IgG1 Fc with N297A, knob/hole
For the molecule B4, in test [6], the Kd stood at 1.72 nM, the koff is 0.000766 s⁻¹ and the kon was determined as 456000 M⁻¹ s⁻¹.
